Article PMC6547688
Results are given in words; binding and its absence hold for the method and conditions named. In cells and extracts the contact can be indirect. Some results given as binding are weak or reduced against the parent protein; the word gives no strength. For part of these data: Tags and fused reporters may be left off the sequences shown. One block for each binder: values may come before it.

Experiments:
[1] = target: T1, ORCA/LRWD1 C-terminally tagged with Flag/HA (human) (UniProt Q9UFC0); test: co-IP; TAP-TAG final eluates (anti-Flag then anti-HA, peptide elution) of Flag/HA-tagged baits from HeLa S3 Dignam nuclear extracts, analysed by western blotting
T1 sequence: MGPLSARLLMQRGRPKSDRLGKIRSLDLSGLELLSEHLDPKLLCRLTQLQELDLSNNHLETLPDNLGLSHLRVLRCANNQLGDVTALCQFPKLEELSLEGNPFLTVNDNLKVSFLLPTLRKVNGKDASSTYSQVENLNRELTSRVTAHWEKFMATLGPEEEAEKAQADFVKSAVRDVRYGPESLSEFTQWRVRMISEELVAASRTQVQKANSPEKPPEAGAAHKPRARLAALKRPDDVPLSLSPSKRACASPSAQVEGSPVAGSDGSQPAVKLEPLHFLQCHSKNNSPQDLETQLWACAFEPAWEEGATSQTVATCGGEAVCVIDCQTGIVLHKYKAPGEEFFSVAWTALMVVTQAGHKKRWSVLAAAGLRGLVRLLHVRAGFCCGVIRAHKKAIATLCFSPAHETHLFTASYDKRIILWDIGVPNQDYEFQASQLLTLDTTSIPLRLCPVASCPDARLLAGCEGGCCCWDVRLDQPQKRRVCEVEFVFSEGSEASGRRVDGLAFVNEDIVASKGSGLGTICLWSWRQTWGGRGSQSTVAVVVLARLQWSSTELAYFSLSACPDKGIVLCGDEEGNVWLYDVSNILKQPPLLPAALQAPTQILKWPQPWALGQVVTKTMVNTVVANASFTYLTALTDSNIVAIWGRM

[2] = target: T2, CDT1 C-terminally tagged with Flag/HA (human) (UniProt Q9H211); test: as above
T2 sequence: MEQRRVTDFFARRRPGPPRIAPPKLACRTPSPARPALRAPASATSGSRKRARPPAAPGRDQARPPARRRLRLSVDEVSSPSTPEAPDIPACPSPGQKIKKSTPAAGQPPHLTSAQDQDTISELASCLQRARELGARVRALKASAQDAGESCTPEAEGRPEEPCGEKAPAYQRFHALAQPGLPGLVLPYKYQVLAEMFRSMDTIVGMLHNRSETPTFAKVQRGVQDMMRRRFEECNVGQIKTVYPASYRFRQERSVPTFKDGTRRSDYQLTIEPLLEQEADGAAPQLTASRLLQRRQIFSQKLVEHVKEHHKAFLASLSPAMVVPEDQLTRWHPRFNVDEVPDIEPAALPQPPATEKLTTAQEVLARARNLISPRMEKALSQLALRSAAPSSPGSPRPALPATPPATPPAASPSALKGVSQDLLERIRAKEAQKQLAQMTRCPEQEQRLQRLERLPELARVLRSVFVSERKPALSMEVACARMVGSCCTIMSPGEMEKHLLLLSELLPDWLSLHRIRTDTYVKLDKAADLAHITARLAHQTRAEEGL

[3] = target: T3, CDC6 C-terminally tagged with Flag/HA (human) (UniProt Q99741); test: as above
T3 sequence: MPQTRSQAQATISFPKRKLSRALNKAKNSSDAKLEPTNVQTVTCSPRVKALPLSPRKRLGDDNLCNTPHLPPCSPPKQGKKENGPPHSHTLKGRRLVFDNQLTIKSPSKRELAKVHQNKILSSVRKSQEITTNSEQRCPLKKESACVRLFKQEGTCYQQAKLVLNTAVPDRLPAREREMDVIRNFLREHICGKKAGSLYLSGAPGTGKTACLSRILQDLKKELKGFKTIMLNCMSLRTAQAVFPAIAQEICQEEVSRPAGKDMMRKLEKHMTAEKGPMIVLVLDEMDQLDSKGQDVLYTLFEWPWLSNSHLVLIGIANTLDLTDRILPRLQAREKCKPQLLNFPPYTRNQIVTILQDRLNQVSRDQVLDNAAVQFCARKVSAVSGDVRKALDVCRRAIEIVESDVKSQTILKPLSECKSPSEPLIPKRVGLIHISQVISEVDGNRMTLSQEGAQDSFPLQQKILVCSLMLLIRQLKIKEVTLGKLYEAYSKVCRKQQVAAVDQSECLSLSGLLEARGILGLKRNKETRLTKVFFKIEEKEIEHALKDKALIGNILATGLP

[4] = target: T4, ORC1 C-terminally tagged with Flag/HA (human) (UniProt Q13415); test: as above
T4 sequence: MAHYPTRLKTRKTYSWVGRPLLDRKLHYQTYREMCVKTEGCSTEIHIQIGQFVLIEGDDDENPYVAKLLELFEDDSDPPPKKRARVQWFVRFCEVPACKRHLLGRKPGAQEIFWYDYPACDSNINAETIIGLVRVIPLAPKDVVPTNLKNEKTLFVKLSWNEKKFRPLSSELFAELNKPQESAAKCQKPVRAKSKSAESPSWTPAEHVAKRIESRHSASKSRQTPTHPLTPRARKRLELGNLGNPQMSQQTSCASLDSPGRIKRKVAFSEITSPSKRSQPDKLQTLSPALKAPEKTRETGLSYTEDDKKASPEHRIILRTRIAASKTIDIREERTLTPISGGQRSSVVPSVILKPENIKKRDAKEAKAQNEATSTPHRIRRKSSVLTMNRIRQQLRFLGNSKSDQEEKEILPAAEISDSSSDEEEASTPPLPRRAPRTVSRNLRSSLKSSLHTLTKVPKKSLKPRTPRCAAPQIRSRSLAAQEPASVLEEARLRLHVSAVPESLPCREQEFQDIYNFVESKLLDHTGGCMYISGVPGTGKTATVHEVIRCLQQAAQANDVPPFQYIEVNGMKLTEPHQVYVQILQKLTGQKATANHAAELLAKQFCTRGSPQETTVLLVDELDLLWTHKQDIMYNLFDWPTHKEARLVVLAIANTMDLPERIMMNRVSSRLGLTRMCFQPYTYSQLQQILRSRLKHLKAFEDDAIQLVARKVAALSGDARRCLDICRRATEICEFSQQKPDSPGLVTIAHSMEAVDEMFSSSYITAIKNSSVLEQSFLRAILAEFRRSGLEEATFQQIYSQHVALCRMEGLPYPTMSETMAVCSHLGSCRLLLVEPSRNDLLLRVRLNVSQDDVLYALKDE

[5] = target: T5, ORC1, endogenous (human (endogenous in HeLa S3)) (UniProt Q13415); test: co-IP; immunoprecipitation/western blotting of endogenous proteins in HeLa S3 cell Dignam extracts
T5 sequence: T4 sequence

[6] = target: T6, Myc-tagged ORC5, wild type (human) (UniProt O43913); test: co-IP; transfected cells lysed in TK300 buffer (20 mM Tris-HCl pH 7.9, 300 mM KCl, 5 mM MgCl2, 10% glycerol, 0.5% NP-40); anti-Flag agarose beads, 4 h at 4 °C; western blotting
T6 sequence: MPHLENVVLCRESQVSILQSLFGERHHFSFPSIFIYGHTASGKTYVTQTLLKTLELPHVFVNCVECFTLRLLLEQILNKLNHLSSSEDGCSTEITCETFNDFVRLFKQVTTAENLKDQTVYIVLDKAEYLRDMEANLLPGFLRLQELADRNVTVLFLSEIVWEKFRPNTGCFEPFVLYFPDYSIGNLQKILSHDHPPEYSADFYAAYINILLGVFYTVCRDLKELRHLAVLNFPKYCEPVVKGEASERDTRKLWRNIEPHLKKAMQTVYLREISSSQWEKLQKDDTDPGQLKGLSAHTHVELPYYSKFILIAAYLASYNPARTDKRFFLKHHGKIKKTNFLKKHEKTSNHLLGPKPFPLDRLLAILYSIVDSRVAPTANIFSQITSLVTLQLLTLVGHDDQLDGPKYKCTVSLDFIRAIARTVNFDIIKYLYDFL

ORC complex (human) = ORC complex (human) (UniProt Q13415); test: as above
[7] = target: T7, Flag-ORC1, ectopic (human) (UniProt Q13415); test: as above
T7 sequence: T4 sequence

[8] = target: T8, Myc-tagged ORC3, wild type (human) (UniProt Q9UBD5); test: as above
T8 sequence: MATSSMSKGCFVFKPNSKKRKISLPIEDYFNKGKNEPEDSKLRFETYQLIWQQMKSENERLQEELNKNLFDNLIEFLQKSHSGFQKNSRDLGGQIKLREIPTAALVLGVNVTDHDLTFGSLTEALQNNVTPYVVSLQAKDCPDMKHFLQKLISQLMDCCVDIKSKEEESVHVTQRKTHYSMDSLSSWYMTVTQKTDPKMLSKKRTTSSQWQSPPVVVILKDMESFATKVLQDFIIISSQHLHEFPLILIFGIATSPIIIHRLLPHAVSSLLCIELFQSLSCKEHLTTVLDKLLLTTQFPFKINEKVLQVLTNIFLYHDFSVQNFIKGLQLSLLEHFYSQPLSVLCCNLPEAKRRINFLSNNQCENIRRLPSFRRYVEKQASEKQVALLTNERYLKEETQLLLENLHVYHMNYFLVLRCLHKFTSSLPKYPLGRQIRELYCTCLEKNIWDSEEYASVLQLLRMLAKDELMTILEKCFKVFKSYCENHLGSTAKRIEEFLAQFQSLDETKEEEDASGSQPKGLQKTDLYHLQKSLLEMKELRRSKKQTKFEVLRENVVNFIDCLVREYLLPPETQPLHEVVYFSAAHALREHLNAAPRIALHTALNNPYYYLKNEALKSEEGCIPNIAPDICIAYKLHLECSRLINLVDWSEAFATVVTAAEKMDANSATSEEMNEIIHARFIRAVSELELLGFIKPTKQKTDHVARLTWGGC

- binding [1]: binds
- binding [2]: no binding
- binding [3]: no binding
- binding [4]: binds
- binding [5]: binds
B1: OBI1 (ORC-ubiquitin-ligase-1), endogenous (enzyme, UniProt Q5W0B1 1-726)
chain: MAQTVQNVTLSLTLPITCHICLGKVRQPVICINNHVFCSICIDLWLKNNSQCPACRVPITPENPCKEIIGGTSESEPMLSHTVRKHLRKTRLELLHKEYEDEIDCLQKEVEELKSKNLSLESQIKTILDPLTLVQGNQNEDKHLVTDNPSKINPETVAEWKKKLRTANEIYEKVKDDVDKLKEANKKLKLENGGLVRENLRLKAEVDNRSPQKFGRFAVAALQSKVEQYERETNRLKKALERSDKYIEELESQVAQLKNSSEEKEAMNSICQTALSADGKGSKGSEEDVVSKNQGDSARKQPGSSTSSSSHLAKPSSSRLCDTSSARQESTSKADLNCSKNKDLYQEQVEVMLDVTDTSMDTYLEREWGNKPSDCVPYKDEELYDLPAPCTPLSLSCLQLSTPENRESSVVQAGGSKKHSNHLRKLVFDDFCDSSNVSNKDSSEDDISRSENEKKSECFSSPKTGFWDCCSTSYAQNLDFESSEGNTIANSVGEISSKLSEKSGLCLSKRLNSIRSFEMNRTRTSSEASMDAAYLDKISELDSMMSESDNSKSPCNNGFKSLDLDGLSKSSQGSEFLEEPDKLEEKTELNLSKGSLTNDQLENGSEWKPTSFFLLSPSDQEMNEDFSLHSSSCPVTNEIKPPSCLFQTEFSQGILLSSSHRLFEDQRFGSSLFKMSSEMHSLHNHLQSPWSTSFVPEKRNKNVNQSTKRKIQSSLSSASPSKATKS

- binding [6]: binds
- binding (ORC complex (human)): binds
- binding [7]: binds
- binding [8]: binds
B2: ectopic OBI1, wild type (enzyme, UniProt Q5W0B1 1-726)
chain: B1 chain
